# Reference: the supplement of paper PMC11417369
# ± gives the standard deviation of the averaged measurements. The list shows a part of the results.
# System: PfAP2-I AP2 domain 3 (GST-tagged)
# Experiment: gcPBM binding intensity (ln(normalized median fluorescence intensity)); higher = stronger DNA binding
# How it was run: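 GST-fused DNA-binding domains of P. falciparum, expressed in E. coli, were applied at about 25 μg on average for 1 h to an Agilent 4 × 180k array of primer-extended double-stranded 36-bp intergenic genomic probes and negative controls. Binding intensity is the highest Masliner-normalised natural-log median intensity across replicate spots of either probe orientation, measured with Alexa488 anti-GST antibody and a 488 nm scan.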
row,Sequence,gcPBM binding intensity (ln)
1,TTTATGAAATGTTGCACACAAAAAACAACATGTTTT [CACACA_site1440],8.82 ± 0.014
2,AAATGATATAAATTATAAAATGGATTTTTTCCATTG [CACACA_negctrl_site420],7.28 ± 0.42
3,TTTAAAAATTAATTCTGTACACATTTTTATTATATT [XGTACX_site4212],7.93 ± 0.23
4,AAAAAAAAAAAAAGTGCACACGATTTAAGGCCTATA [CACACA_site2823],9.79 ± 0.099
5,ATATATATATATATATGTACACATATATTTCTTTTC [XGTACX_site3443],9.52 ± 0.38
6,ATAAAATTTTATATGGGTACATAATATAATATATAT [XGTACX_site8160],8.06 ± 0.35
7,ATTTTATAATTTATATCACACACATATATATATAGT [CACACA_site7885],7.89 ± 0.49
8,ACCATAACATGAATTACAGGAATTGAAAATGTTCCA [CACACA_negctrl_site649],7.51 ± 0.51
9,TATATATATATATTCACACATAAGATGAATAAAGTG [CACACA_site4225],9.14 ± 0.27
10,CAAAATTAATAAGTCACACACACATCTATAATATAT [CACACA_site6519],7.7 ± 0.59
11,TTCTTTATTTTTTCTACACACATTAGATATTCAAAG [CACACA_site7624],8.02 ± 0.53
12,GGTTACATTTTATTTTGTACATAAAAATTTTTATTT [XGTACX_site218],8.15 ± 0.53
13,GTATTATATATAAAAGTGCATATTTTTTTCCCTTAC,9.76 ± 0.48
14,TAAAAAAAAAAAATGTGTACATATTATATATATCTT [XGTACX_site2615],7.64 ± 0.2
15,TATAACAAGTAATGTTGTACATTATATTATGTAATA [XGTACX_site2769],7.46 ± 0.36
16,TTTTTTATTATTATGTGTACGAATATGTGCATATAA [XGTACX_site1364],9.38 ± 0.6
17,ATGAGTATACTAAGAACACACAAGTTACTTGGTGTT [CACACA_site4981],7.54 ± 0.79
18,GTTACACAAACAAACACACACACACGCACGCACAAA [CACACA_site7191],8.24 ± 0.41
19,TTTTTTCTCTATATATGTACATATAAAAAATATATC [XGTACX_site6382],8.04 ± 0.45

row,Sequence,gcPBM binding intensity (ln)
1,CATATTATTTAAACATGTACTCACATATAAATATAA [XGTACX_site6096],7.67 ± 0.38
2,ATATTTAGAATGTTCCTACACACCAAATTTAAGTGG [CACACA_site2346],7.72 ± 0.62
3,TTTATTTTACAAAAAAGTACAAGAAGAAATATCAAT [XGTACX_site7812],7.94 ± 0.54
4,TATTAAAAGTAAAAAACACACATGGATAAATACATA [CACACA_site6048],7.67 ± 0.85
5,ATATATAATATATGTGGTACGCAAAATATTATATTA [XGTACX_site4969],7.87 ± 0.39
6,AATACACGCAAACACACACACACACCCACATATATA [CACACA_site638],8.16 ± 0.42
7,AATGATATATTATAAACACACAAAGATGGATATATA [CACACA_site7349],7.58 ± 0.67
8,TTATATATAAATGAAAGTACAAAACAGGAAAGAATA [XGTACX_site1076],8.32 ± 0.55
9,GAACATTTCACATGGTGTACTCTCTTTTTCAAATAA [XGTACX_site1632],7.88 ± 0.59
10,TTTATATTATAATATAATAATGATCTTAATTTTTTT [XGTACX_negctrl_site100],7.18 ± 0.38
11,TCAATATACCAAAAATGTACAAAAAATAAACAATAT [XGTACX_site8251],8.02 ± 0.73
12,ATTAATCCAAATGAATGTACTTAATAATGTAATTAT [XGTACX_site8946],7.55 ± 0.23
13,AAAAAAAAAATACATACACACACACCCACCCATATA [CACACA_site9187],8.29 ± 0.84
14,TGTCCCCCTTTCTATGCACACTTTAAATTATTCAAA [CACACA_site4200],9.84 ± 0.35
15,ATATATATTATATGCACACTTATATTTCATTAGATT [CACACA_site2599],9.8 ± 0.085
16,ATAAAGAAACATATATGTACTTATATATATATATAT [XGTACX_site5625],9.27 ± 0.42
17,TATTATTTATTATATGCACACATCGAACTATTATTT [CACACA_site2544],9.36 ± 0.085
18,TATTCGAAAGAATAGGCATGCAAACATATCTTATTA [TGCATGCA_site147],7.31 ± 0.69
19,AAACATATAAATCACGGTACACATTATTGAAAGTGT [XGTACX_site2966],7.73 ± 0.71

row,Sequence,gcPBM binding intensity (ln)
1,ATATAATATTAGTGCACACACAAAAATGTACTAAAC [CACACA_site632],11.3 ± 0.54
2,TTCTATATTATATATGCATGTGTTATTCTTATTTTC [TGCATGCA_site92],8.09 ± 0.64
3,TTTCAATACTGAAACTGTACTTGTTTTACTTCTATT [XGTACX_site5924],7.71 ± 0.44
4,CGAAATCATATGTACACACACATATATATATATATA [CACACA_site2151],9.21 ± 0.3
5,AAATAAAGCACACCGACACACACATATATATATATA [CACACA_site8256],10.2 ± 0.73
6,TATATATATGTATACACACATACAAATATGTAAAAA [CACACA_site3720],8.02 ± 0.82
7,TTATAATTTTTTTTTGCATGTGGGTTTTTTTTTGTT [TGCATGCA_site968],7.75 ± 0.47
8,TCATCATATTATATATGTACATATATAATAATTTAT [XGTACX_site1625],7.75 ± 0.36
9,AAATAATTAAAAAAAAGTACACATGTGACTACATAT [XGTACX_site8767],8.09 ± 0.28
10,ATTGTATCTGTATATGCACACAATATCTGTACTTCT [CACACA_site5445],9.34 ± 0.18
11,TAGATAAATGGGTATACACACATATACATAAATATA [CACACA_site375],7.54 ± 0.41
12,GTAAGATTTCTTGTTGCATGCGGTAAAAAGTAAAAT [TGCATGCA_site469],8.41 ± 0.61
13,TACACCCACCAACACACACACACACCCAAAAAAAAA [CACACA_site498],8.5 ± 0.37
14,TTTATATATTTATTCACACATATAATATTCCGTCGT [CACACA_site6120],7.86 ± 0.54
15,AACATACATAAACACACACACACACCCACACCCACA [CACACA_site8058],8.13 ± 0.21
16,TTTATGAAACAGTGCACACATAAAAATATATACATA [CACACA_site2992],10.4 ± 0.39
17,AACTTTATACTTTTTTGTACTTAACCCTTACATTTT [XGTACX_site5798],8.39 ± 0.51
18,TATAGATGTATGTACATACACACATATATAAATAAA [CACACA_site1789],7.65 ± 0.52
19,TGTTAATTTATATTATGTACTTATAATTATCGTTTG [XGTACX_site1032],7.65 ± 0.52
